ChEMBL document CHEMBL4888484, “Replenishing the malaria drug discovery pipeline: Screening and hit evaluation of the MMV Hit Generation Library 1 (HGL1) against asexual blood stage Plasmodium falciparum ,using a nano luciferase reporter read-out” (2022)
In all, about 150,000 compounds went through this assay and about 540 (0.36%) showed an effect of 50% or more. The list shows a part of the results.

The compounds below were run on Plasmodium falciparum (assay: Primary screen in NF54 nanoGlo assay, in single point, at 2uM, 72h; a lower Z score goes with more inhibition). Details: timepoint 72 hour.
Type: functional, Erythrocyte

SMILES	% Inhibition [%]	Z score
COC(=O)c1cnc(CO)c(Cl)c1	3	-0.31
COC[C@@H]1[C@H](NC(=O)c2c(F)cccc2OC)[C@H]2CCO[C@H]21	4	-0.5
CCN=C(NCc1nnc2n1CCC2)N1CCC2(CCC(C)CC2)C1 (stereo not drawn)	9	-1.43
CN(CCCN1C(=O)NC(C)(C)C1=O)Cc1cccc(C#N)c1	-2	0.31
CC(C)N(CC(N)=O)C(=O)[C@H]1CC12CCCC2	-2	0.41
Cc1nc(C)c(C(=O)N2Cc3cnc(CC(C)C)nc3C2)s1	-16	2.07
C[C@H](O)CN1CCN(C(=O)c2ccc(-c3ccc(F)cc3)n2C)CC1	-5	0.97
CCCC(=O)N1CCC(NCc2nc(C3CCCCC3)no2)CC1	-1	0.18
COCCN1C(=O)N[C@@](Cc2ccc(F)cc2)(C2CCN(C(=O)c3sccc3C)CC2)C1=O	-3	0.43
CC(C)CNC(=O)C1(NCc2nnsc2Cl)CCCC1	-13	1.54
Cc1nc(CNCc2ccc3c(c2)OCCO3)c2ccccn12	5	-0.48
CCOc1ccc(-c2c(-c3ccccc3)ncn2Cc2nnn[nH]2)cc1CO	-2	0.43
Cc1cc(C)c(C(=O)Nc2nc(C)ns2)c(C)n1	-1	0.15
CC(C)(C)C[C@H]1CCCN1C(=O)c1nccnc1N	1	-0.24
COc1ccc([C@H]2OCC[C@@H]2NC(=O)Nc2ccccc2-n2nccc2C)cn1	-11	1.88
CCC(C(=O)Nc1nc[nH]n1)(C(F)(F)F)C(F)(F)F	-10	0.92
O=C(NC1CCCC1)[C@H](Cc1ccccc1)NC(=O)N1CC(O)=Nc2ccccc21	-9	0.92
CCc1ccc([C@H](CO)NC(=O)c2cccc3c2CCOC3)cc1	-3	0.32
O=c1ccc(C2CC2)nn1CC1CCN(CC2CCCC2)CC1	0	-0.04
Cc1nn(C)c2nc(NCCCc3csc(N)n3)sc12	-6	0.92
Cc1ccccc1CN1CCCN(Cc2nc(N)nc(N)n2)CC1	4	-0.71

SMILES	% Inhibition [%]	Z score
CCNC(=O)c1ccc(N2CCC[C@H](c3nncn3C3CC3)C2)nn1	-18	2.08
CC(NC(=O)C1CCN(C)C(=O)C1)c1cccnc1 (stereo not drawn)	-2	0.32
Cn1ncc(CNC(=O)c2cccc(C(F)F)c2F)n1	-7	1.29
CC(C)Oc1cccc(C(=O)[C@H]2CCCN(c3ncnc4[nH]ccc34)C2)c1	2	-0.38
COc1ccc(NC(=O)N2CCN(C(=O)c3ccc(F)cc3)CC2)c(C)n1	-13	1.92
COCCN1C[C@@H]2CC[C@H]1CN(C(=O)c1cc3ccc(OC)cc3n1C)C2	-8	1.33
N#Cc1cccc(OCC2CC(F)(F)C2)n1	-8	0.97
CCCc1noc(CCC(=O)NCC(C)(C)c2ccccc2C)n1	2	-0.21
CN(C(=O)C(=O)Nc1ccc2nccnc2c1)C1CCC(C)(C)CC1	-8	0.92
Cn1c(C(F)(F)F)nn(CC(=O)Nc2ccc(F)c(Cl)c2)c1=O	13	-1.53
CN1CCN([C@H]2CN(c3ccc(Cl)cn3)C[C@@H]2O)CC1	-11	1.06
CC1CCN(CCC[C@H](NCCn2ccnn2)c2ccc(F)cc2)CC1	1	-0.13
Cn1nc(C(=O)N(CCO)CC2CCCCC2)c2c1CCCC2	6	-0.71
COCCN(CC(=O)N1N=C(c2ccc(OC)cc2)C[C@H]1c1ccccc1)C(=O)C1CCCC1	-15	1.79
CC(C)c1ncc(C(=O)Nc2ccccc2-c2ncc[nH]2)s1	12	-1.2
Cc1noc(C)c1CS(=O)(=O)c1ccccc1Br	2	-0.42
O=C(COc1ccccc1)N1CCCN(S(=O)(=O)N2CCCC2)CC1	1	-0.08
COCc1nc(-c2ccoc2)n(CC(F)(F)F)n1	-4	0.73
O=C(N1CCc2c(nc[nH]c2=O)C1)C1(c2ccccc2)CCCC1	-1	0.18
Nc1c2c(-c3ccccc3Cl)nc(NC[C@H]3CCCO3)nc2nn1-c1ccccc1	-14	1.36
O=C(c1cc2cc(F)ccc2nc1O)N1C[C@H]2CCC[C@H]2C1	-5	1.02

SMILES	% Inhibition [%]	Z score
O=C(NCc1ccncc1)c1ccc(S(=O)(=O)N2CCCCCC2)cc1	-13	2.32
O=C(c1ccccc1)N1C[C@H]2CC[C@@H](C1)N(C(=O)c1cccc3ccccc13)C2	-7	1.34
CC1CCCC(C)N(C(=O)CCOc2ccc(C(N)=O)cc2)C1 (stereo not drawn)	-2	0.26
Cc1cnc(CN(CCO)Cc2nccs2)cn1	-10	1.51
Cc1oncc1C(=O)N1CC[C@H](n2ccnn2)C1	1	-0.2
CN1CCOC(CNC(=O)NC2CC2c2cccc(F)c2)C1 (stereo not drawn)	2	-0.38
CCN(CC)CCCN(C)c1ncnc(N)c1Cl	-19	2.08
CC(C)(C(=O)NCc1ncccc1S(C)(=O)=O)C1CCC1	-9	1.02
COc1cc2nc(CN3CCOCC3)n(CC(=O)Nc3ccc(C(C)C)cc3)c(=O)c2cc1OC	-7	1.33
c1nc(NCCC2CCCCC2)c2cnoc2n1	7	-0.88
Cn1c(=O)[nH]c(=O)c2nc(C=Cc3cccc(Cl)c3)c(O)nc21	8	-1.05
CCc1ccc(NC(=O)[C@@H]2COCC(=O)N2Cc2ccc(OC)c(OC)c2)cc1	-14	1.59
O=C(COc1ccc2ccccc2c1)Nc1cnn(CC2CC2)c1	-13	2.01
Cc1nc(C)c(Cc2cccc(F)c2)c(N2CCCN(C(=O)c3ccc(C(F)(F)F)cc3)CC2)n1	8	-1.04
O=C(Cc1ccccc1)N(Cc1ccco1)Cc1c(-c2ccc(F)cc2)noc1N1CCOCC1	-2	0.25
CCNS(=O)(=O)[C@H]1CCN(c2cccc(C)n2)C1	-4	0.41
C[C@H]1CCCN(S(=O)(=O)c2cc(C(=O)NCc3ccccc3Cl)n(C)c2)C1	0	0.04
CC12CNCC(C)(CN(Cc3ccccc3Br)C1)C2	-13	1.19
O=C(CN1CCOC[C@@H]1CC1CCC1)Nc1nc(C2CC2)no1	-13	1.84
Cc1ncsc1CCC(=O)Nc1cccc(N2C(=O)CC[C@@H]2C)c1	-2	0.31
COc1ccc(C(=O)NC2CCN(c3ccccc3C(=O)N(C)C3CCCCC3)CC2)cc1	-16	2.54

SMILES	% Inhibition [%]	Z score
Cc1cc(C(=O)N2CCC3(CCC(=O)N(C[C@H](C)O)C3)CC2)c(=O)[nH]c1C	-10	1.73
CN1c2ccccc2C(C)(C)[C@@]12CC(c1ccc(-c3ccccc3)cc1)=NO2	-5	0.67
CCCNC(=O)N[C@H]1[C@H](O)[C@@H](n2cc(Cl)cn2)[C@@H]2OC[C@H]1O2	27	-3.09
FC(F)C(F)(F)COCCN1CCC2OCCCC2C1 (stereo not drawn)	-11	1.17
CCOc1ccc(/C=C2\CCCC3C2=NN(C(=O)c2cc4nc(-c5ccc(C(C)C)cc5)cc(C(F)(F)F)n4n2)C3c2ccc(OCC)cc2)cc1 (stereo not drawn)	-31	3.69
Cc1nc(CNC(=O)Nc2ccccc2OCC(F)F)no1	3	-0.37
CCN1CCN(c2ncc(-c3cc(=O)[nH]c(N4CCN(c5ccccc5)CC4)n3)c(C)n2)CC1	-17	2.47
O=C(N[C@H]1C[C@@](CO)(c2ccccc2)C1)C1=C[S@@+]([O-])CCC1	30	-3.35
O[C@H](Cn1nc(C(F)(F)F)c2cnccc21)CC(F)(F)F	34	-3.81
O=C(NCc1ccccn1)c1cn(-c2cc(F)c(F)c(F)c2)c(=O)c2ccccc12	-3	0.37
Cc1ccccc1[C@H]1CCN(c2ccc(NC(=O)c3ccc(Cl)cc3)c(C(=O)O)c2)C1	38	-5.49
Nc1ncccc1CN1CCCn2nc(CN3CCC[C@H](O)C3)cc2C1	-10	1.21
C#CCCCC(=O)N1CCS(=O)(=O)C(CC)(CC)C1	5	-0.78
Cn1nc(NC(=O)NC[C@H](O)C(F)(F)F)cc1C(F)(F)F	-13	2.32
COc1ccc(C(=O)N(Cc2ccccc2)CC2CCOCC2)cn1	-3	0.43
CCn1nc(Cn2cncn2)nc1[C@H]1CCCC[C@H]1C(=O)c1ccc(C)cc1	-9	1.51
CCC(CC)C(=O)Nc1ccc(Cl)cc1C	3	-0.42
CN(C)c1cc(C(F)(F)F)nc(N2CCC(CO)CC2)n1	-3	0.39
C[C@@H](CN1CCOCC1)NC(=O)c1ccc(Br)o1	-10	1.35
O=C(Nc1ccc(Cl)cc1OCc1ccccc1)N1CC[C@H](O)C(F)(F)C1	-5	1
COC(=O)[C@H]1CCc2nnc(Cc3ccc(F)cc3)n2C1	-9	1.42
